{"source": "PubChem BioAssay AID485294", "about": "(National Center for Advancing Translational Sciences (NCATS), 2010)", "note": "Several values for one entry are separate records, joined by “and”; a condition that tells them apart may be missing. Equal values may be shown once. Among all 370,000 compounds or so, about 150 (0.041%) were called active. This list was built around the results that the source calls inconclusive (neither active nor inactive); the mix of calls is not that of the screen. Calls come from the whole dose curve; as a rule, active = well fitted inhibition curve with a large enough effect; inconclusive = small, poorly fitted or top-dose-only effect; inactive = flat fitted curve, though single readings scatter. Potencies beside an inconclusive call are fits to weak or partial responses and may not hold up. Potency is the fitted concentration of half-maximal effect; tags give direction and shape of the fitted curve.", "data": [{"target": "Beta-lactamase (Escherichia coli (strain K12)) (UniProt P00811)", "sequence (P00811 whole entry, looked up)": "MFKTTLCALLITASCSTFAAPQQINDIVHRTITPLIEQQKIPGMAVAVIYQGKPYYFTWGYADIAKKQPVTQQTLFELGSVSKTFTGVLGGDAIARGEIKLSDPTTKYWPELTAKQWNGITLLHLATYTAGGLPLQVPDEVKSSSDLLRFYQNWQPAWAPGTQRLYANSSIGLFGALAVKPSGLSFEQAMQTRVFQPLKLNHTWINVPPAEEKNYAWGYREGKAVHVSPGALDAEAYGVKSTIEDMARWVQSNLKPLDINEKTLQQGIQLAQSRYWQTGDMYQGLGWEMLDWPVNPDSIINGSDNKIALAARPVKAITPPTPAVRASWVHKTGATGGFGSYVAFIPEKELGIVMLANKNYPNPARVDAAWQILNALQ", "experiment": "qHTS Inhibitors of AmpC Beta-Lactamase (assay with detergent); note: nearly all actives have a fitted effect of over 25% in size;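 for activity change, negative = inhibition: 0% = no-compound wells and -100% = no-enzyme wells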", "conditions": "AmpC hydrolysis of nitrocefin, absorbance 480 nm, 0.01% Triton; activity change, negative = inhibition: at 114 µM (top of the series)", "procedure,_shortened": "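AmpC (5.3 nM in the dispensed reagent) in 20 mM phosphate pH 7.0 with 0.01% (detergent screen) or 0.0001% Triton X-100 was preincubated with compounds for 15 min at room temperature. Nitrocefin was then added from an 800 uM solution, and hydrolysis was followed at 480 nm.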", "values": [{"smiles": "C/C(=C\\c1ccccc1)CN(C)CCN(C)C", "Potency": "inconclusive: 89.1 µM [inhibitor, partial curve, poor fit]"}, {"smiles": "N#Cc1ccc(OCC(=O)N2CCN(S(=O)(=O)c3ccc(Cl)s3)CC2)cc1", "activity change, negative = inhibition": "inactive: -1.11%"}, {"smiles": "CN1CCN(c2ccc(NC(=O)CSc3ccccc3)cc2F)CC1", "activity change, negative = inhibition": "inactive: -12.4%"}, {"smiles": "CCn1c(SCC(=O)c2cc(C)n(-c3ccc(C(=O)OC)cc3)c2C)nnc1-c1cccnc1", "Potency": "inconclusive: 3.16 µM [inhibitor, full curve, poor fit]"}, {"smiles": "Cc1noc(C)c1COC(=O)c1cnc(Cl)c(Cl)c1", "Potency": "inconclusive: 100 µM [inhibitor, partial curve]"}, {"smiles": "O=C(NCc1ccco1)c1cc2ccccc2c(=O)o1", "activity change, negative = inhibition": "inactive: 0.957%"}, {"smiles": "CC(OC(=O)C1CCC1)C(=O)Nc1cc(Cl)cc(Cl)c1", "note": "(configuration not stated)", "Potency": "inconclusive: 20 µM [inhibitor, full curve, poor fit]"}, {"smiles": "COC(=O)c1[nH]c2cc(C)ccc2c1NC(=O)CN1CCN(C(=O)c2ccco2)CC1", "activity change, negative = inhibition": "inactive: 2.93%"}, {"smiles": "O=S(=O)(c1ccc(Br)cc1)c1nc(-c2ccco2)oc1SCc1ccccc1Cl", "activity change, negative = inhibition": "inactive: 7.2%"}, {"smiles": "c1cncc(-c2noc(-c3ccco3)n2)c1", "Potency": "inconclusive: 22.4 µM [inhibitor, partial curve]"}, {"smiles": "O=C(Cc1ccc(-n2c(=O)c3sccc3n(Cc3ccc(F)cc3)c2=O)cc1)NCc1ccco1", "Potency": "inconclusive: 11.2 µM [inhibitor, partial curve]"}, {"smiles": "Cn1c(=O)c2c(-c3ccc(Br)cc3)n(CCc3ccccc3)cc2n(C)c1=O", "activity change, negative = inhibition": "inactive: -9.6%"}, {"smiles": "CN(C)c1ccc(N2C(=O)CC(Sc3ccccc3C(=O)O)C2=O)cc1", "note": "(configuration not stated)", "Potency": "inconclusive: 4.47 µM [inhibitor, full curve]"}, {"smiles": "NC(=O)c1cc(-c2csc(-c3cccnc3)n2)ccc1O", "Potency": "inconclusive: 100 µM [inhibitor, partial curve, poor fit]"}, {"smiles": "CC(C)(CO)Nc1nc(N2CCCC2)nc(N2CCCC2)n1", "Potency": "inconclusive: 28.2 µM [inhibitor, full curve, poor fit]"}, {"smiles": "CCCN1CCN(CCCNC(=S)Nc2ccc3nc(N4CCN(CC)CC4)cc(C)c3c2)CC1", "activity change, negative = inhibition": "inactive: -7.29%"}, {"smiles": "COc1ccc(-c2nnn(CC(=O)N(Cc3cccs3)C(C)C(=O)NC3CCCC3)n2)cc1OC", "note": "(configuration not stated)", "Potency": "inconclusive: 0.631 µM [inhibitor, full curve, poor fit]"}, {"smiles": "COc1ccc(CN2CCCC(CO)(Cc3cccc(Cl)c3)C2)cc1OC", "note": "(configuration not stated)", "Potency": "inconclusive: 1.12 µM [inhibitor, full curve]"}, {"smiles": "Cn1c(CNC(=O)c2ccco2)nnc1SCC(=O)Nc1ccccc1Cl", "Potency": "inconclusive: 56.2 µM [inhibitor, partial curve, poor fit]"}, {"smiles": "CCOC(=O)COc1ccc(S(=O)(=O)N2CCN(c3ccccc3F)CC2)cc1", "Potency": "inconclusive: 1.12 µM [inhibitor, full curve, poor fit]"}, {"smiles": "Cn1ncc(Cl)c1C(=O)Nc1cccc(Cl)c1", "Potency": "inconclusive: 50.1 µM [inhibitor, partial curve, poor fit]"}, {"smiles": "CN1CCN(C(=O)c2cc(Cl)ccc2Cl)CC1", "Potency": "inconclusive: 112 µM [inhibitor, partial curve, poor fit]"}, {"smiles": "CCc1ccc(NC(=O)CCNS(=O)(=O)c2cccs2)cc1", "Potency": "inconclusive: 3.16 µM [inhibitor, full curve]"}, {"smiles": "NCCc1cnc[nH]1", "Potency": "inconclusive: 89.1 µM [inhibitor, single point] and inconclusive: 3.16 mM [inhibitor, partial curve, poor fit]"}, {"smiles": "COc1ccc(C2=Nn3c(nnc3-c3ccncc3)SC2)cc1", "Potency": "inconclusive: 100 µM [inhibitor, partial curve, poor fit]"}, {"smiles": "COc1cc(C(O)c2nc3ccccc3n2C(C)C)cc(OC)c1OC", "note": "(configuration not stated)", "Potency": "inconclusive: 2 µM [inhibitor, full curve, poor fit]"}, {"smiles": "CN(C)/C=C/C(=O)c1cnc(-c2ccccn2)s1", "Potency": "inconclusive: 39.8 µM [inhibitor, single point]"}, {"smiles": "C(=C\\c1ccccc1)/CN1CCN(c2ncnc3c2oc2ccccc23)CC1", "Potency": "inconclusive: 112 µM [inhibitor, partial curve, poor fit]"}, {"smiles": "CCNC(=S)N(CCc1ccc(S(N)(=O)=O)cc1)C1CC(=O)N(c2ccccc2)C1=O", "note": "(configuration not stated)", "activity change, negative = inhibition": "inactive: -2.53%"}, {"smiles": "O=C(NCc1cccs1)c1cnc2sccn2c1=O", "Potency": "inconclusive: 2.82 µM [inhibitor, full curve, poor fit]"}, {"smiles": "COc1ccc(N2CC(NC(=O)NC(C)(C)C)CC2=O)cc1", "note": "(configuration not stated)", "Potency": "inconclusive: 0.562 µM [inhibitor, full curve, poor fit]"}, {"smiles": "Clc1cccc(-n2cc(-c3ccccc3)c3c(N4CCCCC4)ncnc32)c1", "activity change, negative = inhibition": "inactive: -0.886%"}, {"smiles": "Cc1c(NCc2cccnc2)cccc1C(=O)O", "Potency": "inconclusive: 44.7 µM [inhibitor, partial curve, poor fit]"}, {"smiles": "Cn1c(=O)n(C)c2cc(NC(=O)CCl)ccc21", "Potency": "inconclusive: 89.1 µM [inhibitor, single point]"}, {"smiles": "CC(=NC1CCN(Cc2ccccc2)CC1)c1c(O)[nH]c(=O)[nH]c1=O", "Potency": "inconclusive: 15.8 µM [inhibitor, full curve, poor fit]"}, {"smiles": "O=C(CNC(=O)c1ccc(Br)o1)Nc1ccncc1", "Potency": "inconclusive: 44.7 µM [inhibitor, full curve]"}, {"smiles": "CC(=O)NC(Cc1ccccc1)C(=O)O", "note": "(configuration not stated)", "Potency": "inconclusive: 1.41 µM [inhibitor, full curve, poor fit]"}, {"smiles": "CCCn1c(SCC(=O)NCC2CCCO2)nc2c1c(=O)n(C)c(=O)n2C", "note": "(configuration not stated)", "Potency": "inconclusive: 39.8 µM [inhibitor, partial curve]"}, {"smiles": "CC(C)C(=O)Nc1cccc(C(=O)NCc2ccc(S(N)(=O)=O)cc2)c1", "Potency": "inconclusive: 39.8 µM [inhibitor, full curve]"}, {"smiles": "O=c1oc2ccccc2nc1/C=C(O)/C=C/c1ccc(F)cc1", "activity change, negative = inhibition": "inactive: 2.5%"}, {"smiles": "Cc1ccc(-n2c(=O)c3c4c(sc3n(Cc3ccccc3C)c2=O)CCC4)cc1C", "activity change, negative = inhibition": "inactive: -0.789%"}, {"smiles": "CCc1cc2cc3c(cc2nc1SCC(=O)N1CCN(C(=O)c2ccco2)CC1)OCO3", "Potency": "inconclusive: 0.631 µM [inhibitor, full curve, poor fit]"}]}]}
